Laboratory results reported in PubChem BioAssay AID686979 (National Center for Advancing Translational Sciences (NCATS), 2013).
Among all 420,000 compounds or so, about 50,000 (12%) were called active. Inconclusive results, whose numbers are uncertain, are shown with a selection of clear calls. The call rests on the fitted dose curve; in most records, active means well fitted inhibition curve with a large enough effect; inconclusive means small, poorly fitted or top-dose-only effect; inactive means flat fitted curve, though single readings scatter. Potencies of inconclusive entries are left out as doubtful fits.

Experiment: qHTS for Inhibitors of human tyrosyl-DNA phosphodiesterase 1 (TDP1): qHTS in cells in presence of CPT; further: nearly all actives have a fitted effect of over 55% in size
Conditions: chicken DT40 Tdp1-/-;hTDP1 cells + 20 nM CPT, ATP luminescence, 48 h; activity change, negative = growth inhibition: at 46.2 µM (top of the series) unless noted
How it was run: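 Chicken DT40 Tdp1-/- cells complemented with human TDP1, 400 cells/well, exposed to compounds plus 20 nM camptothecin for at least 48 h at 37 C; viability read as ATP content by CellTiter-Glo luminescence.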
On the % scale 0 is the no-effect control and ±100 the full control effect; potency means the concentration at half of the fitted maximal effect; tags describe the fitted curve by direction and shape.

SMILES	Potency	activity change, negative = growth inhibition
CCCCCN1C2=NCCN2c2ccccc21	active: 29.1 µM	
COc1ccc(CCN2CN(S(=O)(=O)c3ccc(OC)cc3)c3nc4ccccc4nc32)cc1	inconclusive [inhibitor, single point]	
S=c1ccc2ccccc2[nH]1	active: 13 µM	
O=C(CSc1nc2ccccc2c(=O)n1-c1ccc(F)c(Cl)c1)Nc1cccc(S(=O)(=O)N2CCOCC2)c1	active: 16.4 µM	
CCOc1ccccc1NC(=O)C1CCCN(c2ncnc3onc(-c4ccc(F)cc4)c23)C1 (stereo not given)	active: 20.6 µM	
Cn1cccc1C(=O)N1CCC2(CCCN(Cc3ccncc3)C2)CC1		inactive: 9.85%
O=C1c2cccc3c([N+](=O)[O-])ccc(c23)C(=O)N1c1ccccn1	active: 3.66 µM	
CCOC(=O)c1oc2ccccc2c1CSc1nnc(-c2ccco2)o1	inconclusive [inhibitor, full curve, poor fit]	
Cc1cccc(NC(=O)CCc2nc3sc4c(c3c(=O)[nH]2)CCCC4)c1	inconclusive [inhibitor, partial curve]	
COc1ccc(-c2ccc(C(=O)Nc3ccc(Cl)cc3)c3occc23)c(C)c1	inconclusive [inhibitor, single point]	
COc1ccc(C2C(C(=O)Nc3ccc(C)cc3C)=C(C)Nc3nc(SC)nn32)cc1OC (stereo not given)		inactive: -11.5%
N#CC(=C1C=CC(=NO)C(Cl)=C1)c1ccccc1	active: 0.651 µM	
COCCNc1nc(-c2ccoc2)nc2ccccc12	inconclusive [inhibitor, partial curve]	
COc1ccc(F)cc1S(=O)(=O)NCCN1CCOCC1		inactive: -8.1%
CCOC(=O)c1sc2nc(Cc3ccc(Cl)cc3)[nH]c(=S)c2c1C	inconclusive [inhibitor, single point]	
NC(=O)CN1C(=O)C2(SCC(=O)N2c2cccc(F)c2)c2ccccc21 (stereo not given)		inactive: 8.38%
CC(C)OC(=O)/C(C#N)=C/c1ccc(-c2ccc(SC(F)F)cc2)o1	inconclusive [inhibitor, partial curve, poor fit]	
CC(=O)c1ccc(C(=O)NCC2Cc3cccc(-c4ncccn4)c3O2)cc1 (stereo not given)		inactive: 2.56% [at 9.04 µM]
Cc1cc(C)nc(N/N=C/C2=C(O)CC(c3ccc(F)cc3)CC2=O)n1 (stereo not given)	active: 23.1 µM	
OC(c1cc(Cl)cc(Cl)c1)c1ncc(-c2ccccc2F)[nH]1 (stereo not given)	inconclusive [inhibitor, single point]	
O=c1[nH]c(/C=C/c2ccccn2)nc2ccccc12	inconclusive [inhibitor, partial curve]	
CCCCn1c(=O)c2oc3ccccc3c2n(Cc2ccc(OC)cc2)c1=O		inconclusive: -32.5% [inhibitor]
Cc1ccccc1NC(=O)CSc1nnc2ccc(-c3cccnc3)nn12		inactive: -24.8%
COCc1nnc(NC(=O)CSc2ccccc2)s1		inactive: -4%
Cc1cccc(NS(=O)(=O)c2ccc3c(c2)OCCO3)c1		inactive: -23.9%

SMILES	Potency	activity change, negative = growth inhibition
Cc1cccc(C)c1NC(=O)C(c1ccccc1)N1CC(=O)Nc2ccccc21 (stereo not given)		inactive: -26.6%
COc1cc(/C=N/NC(=O)c2cccnc2)ccc1OS(=O)(=O)c1cc(C)ccc1C	inconclusive [inhibitor, single point]	
CCN1CCN(CCCNC(=O)c2cn(CCOC)c(=O)c3c2c2ccccc2n3C)CC1		inactive: -10.1%
c1ccc(CN2CCN(c3nc(-c4ccccc4)nc4ccccc34)CC2)cc1	inconclusive [inhibitor, single point]	
O=C(COC(=O)c1ccco1)Nc1nc2ccc([N+](=O)[O-])cc2s1	inconclusive [inhibitor, single point]	
COc1ccc(S(=O)(=O)Nc2ccc3c(c2)sc(=O)n3C)cc1Cl	active: 23.1 µM	
Cn1c(C(=O)NCC2CCCO2)cc2oc3ccccc3c21 (stereo not given)	inconclusive [inhibitor, single point]	
CN(C)S(=O)(=O)c1cccc(NC(=O)COC(=O)c2cc(=O)[nH]c(=O)[nH]2)c1		inactive: 4.15%
CC(=O)Nc1ccc(C(=O)Nc2ccc3c(c2)OCO3)cc1		inactive: -3.11%
O=C(CSc1ncnc2nc[nH]c12)Nc1ccc(Br)cc1Cl	inconclusive [inhibitor, single point]	
COc1ccccc1CNC(=O)c1ccc(-c2nc(CS(=O)c3ccc(C)cc3)c(C)o2)cc1 (stereo not given)	inconclusive [inhibitor, single point]	
Cc1cc(C)cc(NC(=O)COC(=O)c2cccc(S(=O)(=O)N3CCCCC3)c2)c1		inactive: 9.29%
Cc1ccc(C(=O)CSc2nnc(-c3cccs3)n2C)o1		inactive: -28.6%
Cc1cccc(NC(=O)CN(C)C(=O)Cc2ccc(-c3ccccc3)cc2)c1C	inconclusive [inhibitor, full curve, poor fit]	
CCN1C/C(=C/c2ccc(OC)c(O)c2)C(=O)/C(=C/c2ccc(OC)c(O)c2)C1	active: 13 µM	
N#Cc1ccc(OCC(=O)OCC(=O)N2CCc3ccccc32)cc1		inactive: -3%
COc1ccc(Nc2ncnc3c2cnn3-c2cc(Cl)ccc2C)cc1OC	active: 20.6 µM	
O=C1C(C=Nc2ccccc2)=C(O)c2ccccc21		inactive: -21.2%
COC(=O)c1c(C(=O)OC)c(-c2cccc(Cl)c2)n2c1CS(=O)(=O)C2		inactive: -16.7%
O=C(OCc1cc(Cl)ccc1OC(F)F)c1cccnc1		inactive: 6.56%
COc1ccc([C@@H]2C[C@@H](c3ccccc3)Oc3cc(OC)cc(OC)c32)cc1	inconclusive [inhibitor, single point]	
O=C(C[C@@H]1CC[C@@H](NC(=O)Nc2cccc(F)c2)[C@@H](CO)O1)NCC1CCCCC1		inactive: 10.3%
CCOc1ccc(S(=O)(=O)N(CCO)CCO)cc1-c1nc2c(C(C)(C)C)nn(C)c2c(=O)[nH]1	inconclusive [inhibitor, partial curve]	
COc1ccccc1/C=C/C1=NC(=C\N(C)C)/C(=O)O1	inconclusive [inhibitor, single point]	
Cc1cc(N2CCOCC2)nc(SCc2c(Cl)cccc2Cl)n1	inconclusive [inhibitor, partial curve, poor fit]	

SMILES	Potency	activity change, negative = growth inhibition
CCCCNC(=O)CNC(=S)N(Cc1ccccc1)Cc1cccnc1		inactive: 3.82%
Cc1cc(SCc2c(F)cccc2Cl)nc(=O)[nH]1		inactive: 0.592%
CN(c1ccccc1)S(=O)(=O)c1cccc(NC(=O)CCNC(=O)c2ccc([N+](=O)[O-])cc2)c1	inconclusive [inhibitor, partial curve]	
Cc1ccc(-n2nc3c(N4CCC(C(=O)NCCc5ccco5)CC4)nnc(C)c3c2C)cc1	active: 20.6 µM	
O=C(/C=C/c1ccc(F)cc1)Nc1cc(S(=O)(=O)N2CCOCC2)ccc1N1CCCC1		inactive: -19.7%
COc1ccc2c(c1)c1c(c(=O)n(CCc3ccccc3)c(=O)n1Cc1cccc(C)c1)n2C		inactive: 9.54%
Nc1cccc2c1C(=O)N(CC(=O)NC13CC4CC(CC(C4)C1)C3)C2=O		inactive: -7.77%
CCn1c(CC(=O)Nc2ccc(F)cc2)nnc1SCC(=O)Nc1nnc(C)s1		inactive: -13.2%
CCOC(=O)C1(Cc2cccc(Cl)c2)CCCN(C(=O)c2cc(CC)on2)C1 (stereo not given)	inconclusive [inhibitor, single point]	
CC(=O)Nc1ccccc1Nc1cc(C#N)c(C#N)cc1[N+](=O)[O-]	inconclusive [inhibitor, partial curve]	
COCCCn1c(C)nc2c(c1=O)c1nc3ccccc3nc1n2CCc1ccccc1	inconclusive [inhibitor, single point]	
CCOC(=O)c1ccc(-c2ccc(/C=N/NC(=O)c3cncc(Br)c3)o2)cc1	inconclusive [inhibitor, single point]	
O=c1[nH]c(N2CCc3ccccc3C2)nc2c1CCC2		inconclusive: -30.5% [inhibitor]
C[N+]1(CC(O)COc2ccccc2)CCN(C(=O)c2ccc([N+](=O)[O-])cc2)CC1 (stereo not given)		inactive: 6.42%
O=C(c1cc(Cl)cc(Cl)c1)N1CCC2CC1c1cc(-c3ccc4c(c3)OCO4)ccc12 (stereo not given)	inconclusive [inhibitor, single point]	
COc1ccc(S(=O)(=O)N2CCCCC2)cc1C(=O)N1CCCC1		inactive: 7.29%
CCOc1ccc(N2C(N)=NC(N)=NC2(C)C)cc1	inconclusive [inhibitor, single point]	
COc1ccccc1C(c1nnnn1CS(=O)(=O)c1ccc(C)cc1)N1CCSCC1 (stereo not given)	inconclusive [inhibitor, single point]	
Cc1ccc(C(=O)OC2=C(C(=O)c3ccccc3)N(C)S(=O)(=O)c3ccccc32)cc1	inconclusive [inhibitor, single point]	
CC(=O)c1cccc(NC(=O)C(C)N(C)CC(=O)Nc2ccc(Cl)cc2)c1 (stereo not given)	inconclusive [inhibitor, partial curve]	
COC(=O)CC(=O)CSc1nc2cc(C(=O)NC(C)C)ccc2c(=O)n1CCc1ccccc1	inconclusive [inhibitor, single point]	
CC1(C)Cc2nc(-c3ccccc3)nc(SCC(=O)N3CCCC3)c2CO1	inconclusive [inhibitor, single point]	
CCOC(=O)c1ccc(S(=O)(=O)N2CCC(C(=O)NCC3COc4ccccc4O3)CC2)cc1 (stereo not given)	active: 20.6 µM	
CCCc1oc2ccc(NS(=O)(=O)c3ccc(OCC)cc3)cc2c1C(=O)OCC	active: 6.51 µM	
Cc1c(C(=O)NCc2ccc(F)cc2)sc(=O)n1Cc1ccc(Cl)c(Cl)c1	inconclusive [inhibitor, single point]	
